{"source": "the antibiotic and cytotoxicity screens of Wong et al. (2023)", "key": {"[1]": {"tested_on": "HSkMC (human skeletal muscle cells)", "experiment": "cytotoxicity call (relative viability < 0.9)", "conditions": "10 µM"}, "[2]": {"tested_on": "HepG2", "experiment": "cytotoxicity call (relative viability < 0.9)", "conditions": "10 µM"}, "[3]": {"tested_on": "S. aureus RN4220", "experiment": "growth inhibition call (relative growth <= 0.2)", "conditions": "50 µM"}}, "note": "This is one part of the list.", "data": [{"smiles": "C[C@H](CO)N1C[C@H](C)[C@@H](CN(C)Cc2ccc(Oc3ccccc3)cc2)Oc2ccc(NC(=O)C3CCCCC3)cc2C1=O", "values": [{"measurement": "cytotoxicity call", "setting": "[1]", "value": "inactive"}, {"measurement": "cytotoxicity call", "setting": "[2]", "value": "inactive"}, {"measurement": "growth inhibition call", "setting": "[3]", "value": "inactive"}]}, {"smiles": "C[C@@H]1CN([C@@H](C)CO)C(=O)c2cc(NC(=O)Nc3cccc4ccccc34)ccc2O[C@@H](C)CCCCO[C@@H]1CN(C)C(=O)CCCN(C)C", "values": [{"measurement": "cytotoxicity call", "setting": "[1]", "value": "inactive"}, {"measurement": "cytotoxicity call", "setting": "[2]", "value": "inactive"}, {"measurement": "growth inhibition call", "setting": "[3]", "value": "inactive"}]}, {"smiles": "C[C@@H]1CN([C@H](C)CO)C(=O)c2ccccc2-c2ccccc2CO[C@@H]1CN(C)C(=O)Nc1cccc(Cl)c1Cl", "values": [{"measurement": "cytotoxicity call", "setting": "[1]", "value": "inactive"}, {"measurement": "cytotoxicity call", "setting": "[2]", "value": "inactive"}, {"measurement": "growth inhibition call", "setting": "[3]", "value": "inactive"}]}, {"smiles": "C[C@@H]1CN([C@H](C)CO)C(=O)c2cc(NC(=O)NC3CCCCC3)ccc2O[C@@H](C)CCCCO[C@H]1CN(C)C(=O)NC1CCCCC1", "values": [{"measurement": "cytotoxicity call", "setting": "[1]", "value": "inactive"}, {"measurement": "cytotoxicity call", "setting": "[2]", "value": "inactive"}, {"measurement": "growth inhibition call", "setting": "[3]", "value": "inactive"}]}, {"smiles": "CCc1oc2ccccc2c1C(=O)c1cc(Br)c(O)c(Br)c1", "values": [{"measurement": "cytotoxicity call", "setting": "[1]", "value": "inactive"}, {"measurement": "cytotoxicity call", "setting": "[2]", "value": "active"}, {"measurement": "growth inhibition call", "setting": "[3]", "value": "active"}]}, {"smiles": "CNC[C@H]1OCCCC[C@@H](C)Oc2ccc(NC(=O)c3ccncc3)cc2C(=O)N([C@H](C)CO)C[C@H]1C", "values": [{"measurement": "cytotoxicity call", "setting": "[1]", "value": "inactive"}, {"measurement": "cytotoxicity call", "setting": "[2]", "value": "inactive"}, {"measurement": "growth inhibition call", "setting": "[3]", "value": "inactive"}]}, {"smiles": "C[C@H]1CCCCO[C@H](CN(C)CC2CC2)[C@@H](C)CN([C@@H](C)CO)C(=O)c2cc(NC(=O)CCC(F)(F)F)ccc2O1", "values": [{"measurement": "cytotoxicity call", "setting": "[1]", "value": "inactive"}, {"measurement": "cytotoxicity call", "setting": "[2]", "value": "inactive"}, {"measurement": "growth inhibition call", "setting": "[3]", "value": "inactive"}]}, {"smiles": "COc1cccc(S(=O)(=O)N2C[C@H](O)COC[C@@H]3O[C@H](CC(=O)N4CCOCC4)CC[C@H]32)c1", "values": [{"measurement": "cytotoxicity call", "setting": "[1]", "value": "inactive"}, {"measurement": "cytotoxicity call", "setting": "[2]", "value": "inactive"}, {"measurement": "growth inhibition call", "setting": "[3]", "value": "inactive"}]}, {"smiles": "C[C@H](CO)N1C[C@H](C)[C@@H](CN(C)Cc2ccc(Cl)c(Cl)c2)Oc2ccc(NC(=O)Nc3cccc4ccccc34)cc2C1=O", "values": [{"measurement": "cytotoxicity call", "setting": "[1]", "value": "inactive"}, {"measurement": "cytotoxicity call", "setting": "[2]", "value": "inactive"}, {"measurement": "growth inhibition call", "setting": "[3]", "value": "inactive"}]}, {"smiles": "C[C@@H]1CN([C@H](C)CO)C(=O)c2cc(NC(=O)Cc3ccccc3)ccc2O[C@@H](C)CCCCO[C@@H]1CN(C)C(=O)C1CCCCC1", "values": [{"measurement": "cytotoxicity call", "setting": "[1]", "value": "inactive"}, {"measurement": "cytotoxicity call", "setting": "[2]", "value": "inactive"}, {"measurement": "growth inhibition call", "setting": "[3]", "value": "inactive"}]}, {"smiles": "NCCc1cnc[nH]1", "values": [{"measurement": "cytotoxicity call", "setting": "[1]", "value": "inactive"}, {"measurement": "cytotoxicity call", "setting": "[2]", "value": "inactive"}, {"measurement": "growth inhibition call", "setting": "[3]", "value": "inactive"}]}, {"smiles": "C[C@@H]1CCCCO[C@H](CN(C)C(=O)Cc2ccccc2)[C@@H](C)CN([C@@H](C)CO)C(=O)c2cc(NC(=O)Cc3ccccc3)ccc2O1", "values": [{"measurement": "cytotoxicity call", "setting": "[1]", "value": "inactive"}, {"measurement": "cytotoxicity call", "setting": "[2]", "value": "inactive"}, {"measurement": "growth inhibition call", "setting": "[3]", "value": "inactive"}]}, {"smiles": "CN1C(=O)c2cc(NC(=O)C3CCOCC3)ccc2OC[C@@H]2O[C@@H](CC(=O)NCc3ccccc3F)CC[C@@H]21", "values": [{"measurement": "cytotoxicity call", "setting": "[1]", "value": "inactive"}, {"measurement": "cytotoxicity call", "setting": "[2]", "value": "inactive"}, {"measurement": "growth inhibition call", "setting": "[3]", "value": "inactive"}]}, {"smiles": "C[C@H]1CN([C@@H](C)CO)C(=O)c2cc(C#CCN(C)C)cnc2O[C@@H]1CN(C)Cc1ccc(C(=O)O)cc1", "values": [{"measurement": "cytotoxicity call", "setting": "[1]", "value": "inactive"}, {"measurement": "cytotoxicity call", "setting": "[2]", "value": "inactive"}, {"measurement": "growth inhibition call", "setting": "[3]", "value": "inactive"}]}, {"smiles": "C[C@@H]1CCCCO[C@H](CN(C)Cc2ccc3c(c2)OCO3)[C@H](C)CN([C@@H](C)CO)C(=O)c2cc(NS(=O)(=O)c3ccccc3)ccc2O1", "values": [{"measurement": "cytotoxicity call", "setting": "[1]", "value": "inactive"}, {"measurement": "cytotoxicity call", "setting": "[2]", "value": "active"}, {"measurement": "growth inhibition call", "setting": "[3]", "value": "inactive"}]}, {"smiles": "NCC[C@H]1CC[C@H](NC(=O)Cc2ccncc2)[C@@H](CO)O1", "values": [{"measurement": "cytotoxicity call", "setting": "[1]", "value": "inactive"}, {"measurement": "cytotoxicity call", "setting": "[2]", "value": "inactive"}, {"measurement": "growth inhibition call", "setting": "[3]", "value": "inactive"}]}, {"smiles": "COc1ccc(S(=O)(=O)Nc2ccc3c(c2)C(=O)N([C@H](C)CO)C[C@@H](C)[C@@H](CN(C)C(=O)Nc2c(C)noc2C)O3)cc1", "values": [{"measurement": "cytotoxicity call", "setting": "[1]", "value": "inactive"}, {"measurement": "cytotoxicity call", "setting": "[2]", "value": "inactive"}, {"measurement": "growth inhibition call", "setting": "[3]", "value": "inactive"}]}, {"smiles": "COc1ccc2c3c(n(c2c1)C)[C@H](CO)N(C[C@]13CCN(CC1)C(=O)Nc1cccc(c1)F)C(=O)C1CCCCC1", "values": [{"measurement": "cytotoxicity call", "setting": "[1]", "value": "inactive"}, {"measurement": "cytotoxicity call", "setting": "[2]", "value": "inactive"}, {"measurement": "growth inhibition call", "setting": "[3]", "value": "inactive"}]}, {"smiles": "C[C@@H]1CN([C@@H](C)CO)C(=O)Cc2cc(NS(=O)(=O)c3ccc(Cl)cc3)ccc2O[C@H]1CN(C)S(=O)(=O)c1cn(C)cn1", "values": [{"measurement": "cytotoxicity call", "setting": "[1]", "value": "inactive"}, {"measurement": "cytotoxicity call", "setting": "[2]", "value": "inactive"}, {"measurement": "growth inhibition call", "setting": "[3]", "value": "inactive"}]}, {"smiles": "COc1ccc(S(=O)(=O)N(C)C[C@H]2Oc3ccc(NC(=O)C4CC4)cc3CC(=O)N([C@H](C)CO)C[C@@H]2C)cc1", "values": [{"measurement": "cytotoxicity call", "setting": "[1]", "value": "inactive"}, {"measurement": "cytotoxicity call", "setting": "[2]", "value": "inactive"}, {"measurement": "growth inhibition call", "setting": "[3]", "value": "inactive"}]}, {"smiles": "C[C@@H]1CN([C@H](C)CO)C(=O)c2cc(NS(=O)(=O)c3cccs3)ccc2O[C@H]1CN(C)S(C)(=O)=O", "values": [{"measurement": "cytotoxicity call", "setting": "[1]", "value": "inactive"}, {"measurement": "cytotoxicity call", "setting": "[2]", "value": "inactive"}, {"measurement": "growth inhibition call", "setting": "[3]", "value": "inactive"}]}, {"smiles": "CC(=O)N(C)CP(=O)(O)CN1CCCC1=O", "values": [{"measurement": "cytotoxicity call", "setting": "[1]", "value": "inactive"}, {"measurement": "cytotoxicity call", "setting": "[2]", "value": "inactive"}, {"measurement": "growth inhibition call", "setting": "[3]", "value": "inactive"}]}, {"smiles": "NC(=O)c1ccc([N+](=O)[O-])cc1Cl", "values": [{"measurement": "cytotoxicity call", "setting": "[1]", "value": "inactive"}, {"measurement": "cytotoxicity call", "setting": "[2]", "value": "inactive"}, {"measurement": "growth inhibition call", "setting": "[3]", "value": "inactive"}]}, {"smiles": "CN1CCN(C(=O)C[C@H]2CC[C@H]3[C@@H](COC[C@H](O)CN3Cc3ccc4c(c3)OCO4)O2)CC1", "values": [{"measurement": "cytotoxicity call", "setting": "[1]", "value": "inactive"}, {"measurement": "cytotoxicity call", "setting": "[2]", "value": "inactive"}, {"measurement": "growth inhibition call", "setting": "[3]", "value": "inactive"}]}, {"smiles": "CC(C)CC#Cc1ccc2c(c1)O[C@@H](CN(C)C(=O)Cc1cccnc1)[C@@H](C)CN([C@@H](C)CO)S2(=O)=O", "values": [{"measurement": "cytotoxicity call", "setting": "[1]", "value": "inactive"}, {"measurement": "cytotoxicity call", "setting": "[2]", "value": "inactive"}, {"measurement": "growth inhibition call", "setting": "[3]", "value": "inactive"}]}, {"smiles": "COc1cccc(S(=O)(=O)Nc2ccc3c(c2)[C@@H]2C[C@@H](CC(=O)NC4CCCCC4)O[C@@H](CO)[C@@H]2O3)c1", "values": [{"measurement": "cytotoxicity call", "setting": "[1]", "value": "inactive"}, {"measurement": "cytotoxicity call", "setting": "[2]", "value": "inactive"}, {"measurement": "growth inhibition call", "setting": "[3]", "value": "inactive"}]}]}
